Reference: PubChem BioAssay AID1745853 (National Center for Advancing Translational Sciences (NCATS), 2022)
Several values for one entry are separate records, joined by “and”; a condition that tells them apart may be missing. Identical values can stand only once. This is one part of the list. Further columns of the screen follow, without active or inactive calls.

Experiments:
Test in all cases: Primary Screen for Target Class Profiling of Small Molecule Inhibitors of Methyltransferases
[1] = target: Glycine N-methyltransferase (Homo sapiens) (UniProt Q14749); conditions: purified enzyme, MTase-Glo SAH luminescence; measured here: GNMT inhibition; at 40 µM; stronger effect = lower value
How it was run: (§1)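 Each enzyme was reacted with SAM and its substrate, with compounds tested once at 40 uM; SAH formed was read by MTase-Glo luminescence.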

[2] = target: Guanidinoacetate N-methyltransferase (Homo sapiens) (UniProt Q14353); conditions: purified enzyme, MTase-Glo SAH luminescence; measured here: GAMT inhibition; at 40 µM; stronger effect = lower value
How it was run: as §1

[3] = target: Histamine N-methyltransferase (Homo sapiens) (UniProt P50135); conditions: purified enzyme, MTase-Glo SAH luminescence; measured here: HNMT inhibition; at 40 µM; stronger effect = lower value
How it was run: as §1

[4] = target: Nicotinamide N-methyltransferase (Homo sapiens) (UniProt P40261); conditions: purified enzyme, MTase-Glo SAH luminescence; measured here: NNMT inhibition; at 40 µM; stronger effect = lower value
How it was run: as §1

[5] = target: Phenylethanolamine N-methyltransferase (Homo sapiens) (UniProt P11086); conditions: purified enzyme, MTase-Glo SAH luminescence; measured here: PNMT inhibition; at 40 µM; stronger effect = lower value
How it was run: as §1
% is scaled to controls: 0 for no effect and ±100 for the full control effect.

SMILES | activity change, negative = inhibition [1] | activity change, negative = inhibition [2] [%] | activity change, negative = inhibition [3] | activity change, negative = inhibition [4] | activity change, negative = inhibition [5]
CC1CCCC(NC(=O)C2(C)Cn3c(cc4occc43)C(=O)N2Cc2ccccc2F)C1C (stereo not given) | -4.43% | 2.24 | -0.719% | -4.77% | -3.27%
COc1ccccc1CNC(=O)C1(C)Cn2cnc(C(=O)NCc3ccccc3Cl)c2C(=O)N1C1CC1 (stereo not given) | -9.57% | 0.513 | -2.83% | -5.94% | -6.92%
CC(C)Cn1c(=O)c2ccccc2n2c(SCc3ccccc3F)nnc12 | -0.488% | 0.686 | 7.17% | -0.115% | 3.37%
O=C1NCCCCCN(CC2CCCCC2)[C@H]2CCC[C@@H]12 | -8.33% | -3.86 | -1.95% | -4.3% | 7.2%
C=Cc1ccc(Cn2nc3n(C)c(=O)c4ccc(C(=O)NC5CCCCC5)cc4n3c2=O)cc1 | 0.942% | 4.89 | 3.84% | 2.04% | 2.79%
C[C@@H]1O[C@@H](O[C@H]2[C@H](O)[C@@H](C(=O)O)O[C@@H](O[C@H]3CC[C@@]4(C)C(CC[C@]5(C)C4CC=C4C6CC(C)(C)CC[C@]6(C(=O)O)CC[C@]45C)C3(C)C)[C@@H]2O[C@@H]2O[C@H](CO)[C@@H](O)[C@H](O)[C@H]2O)[C@H](O)[C@H](O)[C@H]1O (stereo not given in full) | 0% | 2.38 | 4.64% | -12.7% | 8.01%
COc1ccc(CC2NCCc3c2[nH]c2ccc(C)cc32)cc1OC (stereo not given) | 0.373% | 9.72 | -7.63% | -19.9% | 4.98%
CCc1nc(CC)n2ccn(Cc3ccc(OC)cc3)c(=O)c12 | -3.34% | 2.22 | -1.17% | -7.31% | -1.16%
Cc1nc(NC(=O)N2CCCC2C(N)=O)sc1-c1ccnc(C(C)(C)C(F)(F)F)c1 (stereo not given) | -15.9% | – | -11.5% | – | –
CC(C)Cc1cc(CC2(NC3CCOCC3)COC2)no1 | -4.46% | -3.58 | -3.02% | -6.63% | -2.44%
Cc1cc(C)cc(CCC(=O)N2CCN(c3ccc(C#N)cn3)CC2)c1 | -5.54% | -2.53 | -2.62% | -12.3% | -8.51%
O=C(NC1CCCC1)c1ccc2c(=O)n(Cc3ccccc3)c3nn(Cc4cccc(F)c4)c(=O)n3c2c1 | 0.498% | -1.9 | 2.87% | -4.39% | -1.93%
CC(C)CCNC(=O)C1(C)Cn2c(cc3ccccc32)C(=O)N1CCc1ccccc1Cl (stereo not given) | 2.37% | 0.687 | -1.6% | -5.09% | -3.09%
O=C(Nc1ccc2c(c1)OCCO2)N1CC(c2nc(CCOCC3CC3)no2)C1 | -5.93% | -8.19 | -3.54% | -8.46% | -3.85%
CC(C(=O)O)c1ccc(CC2CCCC2=O)cc1 (stereo not given) | 6.82% | 14.1 | 6.59% | 0.459% | 11.2%
CCc1cccc(NC(=O)Cn2nc3n(CC(C)C)c(=O)c4ccc(C(=O)NCC(C)C)cc4n3c2=O)c1 | 8.17% | 0.707 | 10.1% | 3.87% | 5.71%
CC(CNC(=O)CCc1nnc2ccc(NCCCN3CCCC3=O)nn12)c1ccccc1 (stereo not given) | 0.84% | 3.4 | 7.85% | 6.68% | 8.74%
Cc1cc2c(cc3n2CC(C)(C(=O)NC2CCCCCC2)N(CCN2CCN(C)CC2)C3=O)o1 (stereo not given) | 0.024% | 4.19 | 1.27% | -1.67% | -2.63%
C=CC1(C)C=C2C(=O)CC3C(C)(C)CCCC3(C(=O)O)C2(O)CC1 (stereo not given) | 0% | 6.59 | 9.83% | -6.08% | 7.36%

SMILES | activity change, negative = inhibition [1] | activity change, negative = inhibition [2] [%] | activity change, negative = inhibition [3] | activity change, negative = inhibition [4] | activity change, negative = inhibition [5]
CN1C(=O)c2cc(C(=O)NCCCN3CCCC3=O)nn2CC1(C)C(=O)NCc1ccc(F)cc1 (stereo not given) | 0.921% | 2.7 | -2.41% | 1.58% | -1.56%
CCc1cc2c(cc3n2CC(C)(C(=O)NC2CCC(C)CC2)N(c2cccc(F)c2)C3=O)s1 (stereo not given) | 1.82% | 0.324 | 2.91% | 5.23% | 1.22%
O=C(O)CCc1c(C(=O)O)[nH]c2cc(Cl)cc(Cl)c12 | -1.28% | 4.59 | 12.3% | -4.46% | 8.96%
CCNC(=O)N1C[C@H]2OC(=O)N(Cc3ccc(OC)c(OC)c3)[C@H]2C1 | -0.636% | 0.536 | -0.538% | 4.35% | 3.23%
CCC1c2ccc(C)n2CCN1C(=O)Nc1ccc(C)cc1 (stereo not given) | -0.577% | 0 | -1.76% | -5.97% | 0.15%
O=C(Cn1ccc2cc(S(=O)(=O)N3CCCCC3)ccc21)NCc1cccs1 | 4.29% | 4.03 | -3.45% | 0.806% | -0.331%
CC[C@H]1OC(=O)[C@H](C)[C@@H](O[C@H]2C[C@@](C)(OC)[C@@H](O)[C@H](C)O2)[C@H](C)[C@@H](O[C@@H]2O[C@H](C)C[C@H](N(C)C)[C@H]2O)[C@](C)(O)C[C@@H](C)C(=O)[C@H](C)[C@@H](O)[C@]1(C)O | – | -17.3 | – | -20.2% | -2.57%
CC(C)c1nc(-c2ccc(OC3CCNC3)cc2)no1 (stereo not given) | -3.84% | -4.61 | -27.9% | -7.07% | -9.87%
CC(C)CCN1CC(Oc2ccc(F)cc2F)C1 | -3.78% | -2.33 | 0.584% | -7.76% | -5.57%
CCc1nc(CN2CCOC(c3ccc4cc(OC)ccc4c3)C2)no1 (stereo not given) | -6.73% | -5.06 | -3.59% | -7.32% | -9.57%
Cc1cc(CNS(=O)(=O)c2ccc3c(c2)CCN(C(=O)C(O)C(C)C)C3)no1 (stereo not given) | -2.32% | -5.5 | -0.285% | -1.41% | -1.03%
Cc1ccc(NC(=O)c2sc(=S)n3c2[nH]c(=O)c2cc(Cl)ccc23)c(C)c1 | -10.6% | 0 | 8.53% | -1.47% | -4.24%
FC(F)(F)c1cc(C(F)(F)F)c2ccc3nc(-c4nnco4)cn3c2n1 | -0.152% | -7.28 | 7.79% | -17.8% | -1.3%
CCc1nn(CCO)c(CC)c1Oc1cc(C#N)cc(C#N)c1 | -2.67% | -8.07 | 6.32% | -20.3% | -1.99%
O=C(O)CCCc1c[nH]c2ccccc12 | -1.94% | -6.37 | 11.3% | -10.4% | 3.08%
O=C(c1cc(Cc2n[nH]c(=O)c3ccccc23)ccc1F)N1CCN(C(=O)C2CC2)CC1 | -11.9% and -8.64% | -3.94 | 0.172% and 12% | -20.5% and -3.38% | -6.85% and 4.57%
Clc1ccc(-c2nnn3c2nc(NCc2ccccc2)c2ccccc23)cc1 | -1.04% | 1.37 | 1.96% | -1.34% | -4.74%
CC(C)[C@@H](C)/C=C/[C@@H](C)[C@H]1CC[C@H]2C3=CC=C4C[C@@H](O)CC[C@]4(C)[C@H]3CC[C@]12C | 0.284% | 1.97 | 8.58% | -9.43% | 3.81%
COCCOC(=O)C1=C(C)NC2=C(C(=O)CC(c3ccccc3OC)C2)C1c1cccc(O)c1 (stereo not given) | -7.11% | 2.13 | -2.35% | -19.6% | -4.49%
